The subject of one test is HSkMC. The test can be described thus: cytotoxicity call (relative viability < 0.9). As to conditions: 10 µM.
The next test deals with HepG2. Kind of test: cytotoxicity call (relative viability < 0.9). As to conditions: 10 µM.
Another test deals with S. aureus RN4220. The test can be described thus: growth inhibition call (relative growth <= 0.2). As to conditions: 50 µM.

The other results are listed elsewhere or left out.

Take `CO[C@H](CN(C)S(=O)(=O)c1cccc(Cl)c1)[C@@H](C)CN([C@@H](C)CO)S(=O)(=O)c1ccc(Cl)cc1`: the cytotoxicity call in the test on HSkMC and with HepG2 was “inactive” throughout. In addition, the growth inhibition call with S. aureus RN4220 is “inactive”.
On to `Cc1noc(C)c1S(=O)(=O)N(C)C[C@@H]1OCc2cnnn2CCCC(=O)N([C@H](C)CO)C[C@@H]1C`, for which the cytotoxicity call with HSkMC and in the test with HepG2 was “inactive” in each case. In addition, the growth inhibition call in the test on S. aureus RN4220 is “inactive”.
Consider `C[C@@H]1CN([C@@H](C)CO)C(=O)c2cccc(NC(=O)Nc3ccc(C(F)(F)F)cc3)c2O[C@@H]1CN(C)CC1CCCCC1`, for which the cytotoxicity call with HSkMC and with HepG2 was “inactive” in each case. In addition, in the test with S. aureus RN4220, the growth inhibition call is “inactive”.
Turning to `C[C@H](CO)N1C[C@H](C)[C@H](CN(C)Cc2ccc(Cl)c(Cl)c2)Oc2ccc(NC(=O)Cc3cn(C)c4ccccc34)cc2C1=O`, the cytotoxicity call in the test with HSkMC was “active”. The cytotoxicity call in the test on HepG2 was “inactive”. Also, the growth inhibition call in the test on S. aureus RN4220 is “inactive”.
Take `CC(=O)N[C@H]1C(=O)SC1(C)C`: the cytotoxicity call in the test on HSkMC and in the test with HepG2 was “inactive” each time. The growth inhibition call in the test on S. aureus RN4220 was “inactive”.
With `C[C@@H]1CN([C@H](C)CO)C(=O)Cc2cc(NC(=O)Nc3ccc(C(F)(F)F)cc3)ccc2O[C@H]1CN(C)Cc1ccc(Oc2ccccc2)cc1`, the cytotoxicity call in the test with HSkMC is “active”. Further, in the test on HepG2, the cytotoxicity call was “inactive”. In addition, the growth inhibition call with S. aureus RN4220 is “inactive”.
As for `CCCS(=O)(=O)N1CCC[C@H](C(=O)NC)C1`, the cytotoxicity call with HSkMC and with HepG2 was “inactive” in each case. In addition, the growth inhibition call in the test on S. aureus RN4220 is “inactive”.
Regarding `C[C@@H]1CCCCO[C@@H](CN(C)C(=O)Nc2ccc(C(F)(F)F)cc2)[C@@H](C)CN([C@H](C)CO)C(=O)c2cc(NS(=O)(=O)c3ccc(F)cc3)ccc2O1`, the cytotoxicity call in the test with HSkMC was “inactive”. Also, the cytotoxicity call in the test with HepG2 is “active”. Further, the growth inhibition call in the test on S. aureus RN4220 is “inactive”.
Consider `C[C@@H]1CN([C@H](C)CO)C(=O)c2cccc(NC(=O)Nc3ccc4c(c3)OCO4)c2O[C@H]1CN(C)Cc1ccc(-c2ccccc2)cc1`, for which the cytotoxicity call in the test with HSkMC and in the test on HepG2 was “inactive” each time. Also, the growth inhibition call in the test with S. aureus RN4220 is “inactive”.
Regarding `C[C@H](CO)N1C[C@H](C)[C@H](CN(C)S(C)(=O)=O)Oc2c(NS(=O)(=O)c3cn(C)cn3)cccc2C1=O`, the cytotoxicity call with HSkMC is “inactive”. In addition, in the test on HepG2, the cytotoxicity call is “active”. Also, the growth inhibition call with S. aureus RN4220 is “inactive”.
`C[C@H]1CCCCO[C@H](CN(C)S(=O)(=O)c2ccc(F)cc2)[C@@H](C)CN([C@@H](C)CO)C(=O)c2cc(NC(=O)NC3CCCCC3)ccc2O1`: the cytotoxicity call in the test with HSkMC and in the test on HepG2 was “inactive” in each case. Also, the growth inhibition call in the test with S. aureus RN4220 was “inactive”.
For `CC(C)NC(=O)Nc1ccc2c(c1)C(=O)N([C@H](C)CO)C[C@H](C)[C@H](CN(C)C(=O)Nc1cccc3ccccc13)OCCCC[C@@H](C)O2`, the cytotoxicity call with HSkMC and in the test on HepG2 was “inactive” each time. Also, the growth inhibition call in the test on S. aureus RN4220 is “inactive”.
On to `CN(C)CCCNC(=O)C[C@H]1CC[C@@H](NS(=O)(=O)c2ccccc2)[C@@H](CO)O1`, for which the cytotoxicity call in the test with HSkMC and with HepG2 was “inactive” throughout. The growth inhibition call in the test with S. aureus RN4220 was “inactive”.
As for `Cn1cnc2c1[C@H](C(=O)N1CCN(c3ccccc3)CC1)N(S(C)(=O)=O)CC2`, the cytotoxicity call in the test with HSkMC and with HepG2 was “inactive” throughout. For the same compound, the growth inhibition call in the test with S. aureus RN4220 is “inactive”.
`Cc1noc(C)c1S(=O)(=O)Nc1cccc2c1O[C@@H](CN(C)S(=O)(=O)c1cccs1)[C@@H](C)CN([C@H](C)CO)C2=O`: the cytotoxicity call with HSkMC and in the test on HepG2 was “inactive” in each case. Also, in the test on S. aureus RN4220, the growth inhibition call is “inactive”.
With `CC(C)NC(=O)Nc1ccc2c(c1)CC(=O)N([C@@H](C)CO)C[C@H](C)[C@H](CN(C)C(=O)NC1CCCCC1)O2`, the cytotoxicity call in the test with HSkMC and in the test on HepG2 was “inactive” throughout. Also, the growth inhibition call in the test with S. aureus RN4220 is “inactive”.
`Cc1ccc(S(=O)(=O)N[C@@H](Cc2ccccc2)C(=O)NCCn2cc(-c3ccc(C(=O)NO)s3)nn2)cc1`: the cytotoxicity call in the test on HSkMC and in the test with HepG2 was “inactive” in each case. In the test with S. aureus RN4220, the growth inhibition call is “inactive”.
`C[C@H]1CN([C@@H](C)CO)S(=O)(=O)c2ccc(-c3cncnc3)cc2O[C@H]1CN(C)C(=O)Cc1cccnc1`: the cytotoxicity call with HSkMC and with HepG2 was “inactive” in each case. Moreover, in the test on S. aureus RN4220, the growth inhibition call is “inactive”.
On to `C[C@H]1CCCCO[C@@H](CN(C)S(=O)(=O)c2cn(C)cn2)[C@@H](C)CN([C@@H](C)CO)C(=O)c2cc(NS(=O)(=O)c3ccccc3)ccc2O1`, for which the cytotoxicity call in the test on HSkMC (human skeletal muscle cells) and in the test with HepG2 was “inactive” in each case. For the same compound, the growth inhibition call in the test on S. aureus RN4220 is “inactive”.
